{"source": "paper PMC6212790", "note": "Some of the results follow. At the low end of the ranking, values are background and their order means little."}
{"biological_target": "T1, GST-Rok-C97-191 (UniProt O34857)", "T1 sequence": "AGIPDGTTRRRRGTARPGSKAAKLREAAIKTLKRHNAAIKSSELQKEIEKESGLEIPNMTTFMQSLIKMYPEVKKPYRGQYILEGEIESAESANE", "experiment": "protein binding microarray;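 also: rank score from −0.5 (least bound) to 0.5 (best bound)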", "conditions": "Rok is a gene silencer of Bacillus subtilis; high values mean tight binding; most listed sequences are background and not binding sites; double strand, one strand shown", "units": {"binding signal": "E-score"}}
{"sequence": "AATCTTGC", "binding signal": -0.0586}
{"sequence": "AAATGTAG", "binding signal": 0.286}
{"sequence": "AAACATCG", "binding signal": -0.13}
{"sequence": "CCCTGAAA", "binding signal": -0.0357}
{"sequence": "CCCACCGC", "binding signal": -0.257}
{"sequence": "AATCTTAA", "binding signal": 0.104}
{"sequence": "ACGGAACG", "binding signal": -0.0415}
{"sequence": "GCATGCGA", "binding signal": -0.374}
{"sequence": "CGATAGAC", "binding signal": 0.063}
{"sequence": "AAGAGTCT", "binding signal": -0.0684}
{"sequence": "TCCCTAGA", "binding signal": 0.0553}
{"sequence": "AACGGCGA", "binding signal": -0.284}
{"sequence": "CACAACTG", "binding signal": -0.115}
{"sequence": "TACGCCGA", "binding signal": -0.215}
{"sequence": "GCAAGGAC", "binding signal": -0.146}
{"sequence": "GACGTTCC", "binding signal": -0.148}
{"sequence": "AAACATAA", "binding signal": 0.23}
{"sequence": "CGTTCTCA", "binding signal": 0.119}
{"sequence": "GTAGCGTA", "binding signal": 0.275}
{"sequence": "CCTCTGCG", "binding signal": -0.162}
{"sequence": "AGTAGATA", "binding signal": 0.456}
{"sequence": "CGCGATGC", "binding signal": -0.174}
{"sequence": "AATTTCCT", "binding signal": 0.16}
{"sequence": "GGAACTCC", "binding signal": -0.0369}
{"sequence": "ATTACCAA", "binding signal": 0.333}
{"sequence": "CTAGCTTC", "binding signal": 0.12}
{"sequence": "ACAACTTG", "binding signal": 0.173}
{"sequence": "CGCTGCGC", "binding signal": -0.18}
{"sequence": "AGGACATA", "binding signal": 0.0835}
{"sequence": "TCGCTTAA", "binding signal": 0.0476}
{"sequence": "CCGTCTTC", "binding signal": -0.0841}
{"sequence": "ACCAATAG", "binding signal": 0.123}
{"sequence": "CTCCCCGA", "binding signal": -0.265}
{"sequence": "CCGAAGTC", "binding signal": -0.0808}
{"sequence": "TACACCGA", "binding signal": -0.0823}
{"sequence": "GAGCGGCA", "binding signal": -0.331}
{"sequence": "AAGGCTGG", "binding signal": -0.169}
{"sequence": "AGAAGTGC", "binding signal": 0.116}
{"sequence": "CCGCGAGA", "binding signal": -0.243}
{"sequence": "ACGGACTC", "binding signal": -0.223}
{"sequence": "GGATGCTA", "binding signal": 0.172}
{"sequence": "ACCTCGGA", "binding signal": 0.0232}
{"sequence": "AAGGGGCG", "binding signal": -0.409}
{"sequence": "ATTACAGG", "binding signal": 0.0672}
{"sequence": "ACCCATCG", "binding signal": -0.13}
{"sequence": "TTATAGAA", "binding signal": 0.19}
{"sequence": "GCTCGCAA", "binding signal": -0.145}
{"sequence": "AGTCAAGG", "binding signal": -0.145}
{"sequence": "CCAGGCGC", "binding signal": -0.22}
{"sequence": "AGAAAAAC", "binding signal": 0.106}
{"sequence": "CGATAGTC", "binding signal": -0.0434}
{"sequence": "CTTATTAC", "binding signal": 0.332}
{"sequence": "GGTGCACC", "binding signal": -0.301}
{"sequence": "ACTTCTGA", "binding signal": 0.0382}
{"sequence": "CGGCGATA", "binding signal": 0.101}
{"sequence": "GTATGAAC", "binding signal": 0.0892}
{"sequence": "AGTCATGG", "binding signal": -0.0208}
{"sequence": "CCAGGTGC", "binding signal": -0.311}
{"sequence": "CTACTCCC", "binding signal": 0.0937}
{"sequence": "AGATTGCC", "binding signal": -0.0861}
{"sequence": "ACCGTAGC", "binding signal": -0.0564}
{"sequence": "AGTGGTGA", "binding signal": 0.0302}
{"sequence": "ACAAGCGA", "binding signal": -0.172}
{"sequence": "GGCCGAAC", "binding signal": -0.283}
{"sequence": "AGCTGAAG", "binding signal": 0.097}
{"sequence": "ACACCAGA", "binding signal": 0.126}
{"sequence": "GTTGTAAA", "binding signal": 0.271}
{"sequence": "CGGACCGA", "binding signal": -0.0489}
{"sequence": "AGTCGCTA", "binding signal": 0.1}
{"sequence": "CCCGCATA", "binding signal": -0.124}
{"sequence": "CTGCCCCC", "binding signal": -0.352}
{"sequence": "AAGCAGGG", "binding signal": -0.181}
{"sequence": "CGCGGTCC", "binding signal": -0.216}
{"sequence": "GTAAATAA", "binding signal": 0.28}
{"sequence": "GCCCTATA", "binding signal": -0.0126}
{"sequence": "CTTTTTTC", "binding signal": 0.0492}
{"sequence": "CTCTCTGC", "binding signal": -0.0591}
{"sequence": "TTAGAGAA", "binding signal": -0.0283}
{"sequence": "GATGCCCC", "binding signal": -0.189}
{"sequence": "AACTTACC", "binding signal": 0.0708}
{"sequence": "GCCCGCTA", "binding signal": -0.113}
{"sequence": "AGTGCAAG", "binding signal": 0.113}
{"sequence": "ACATAAGT", "binding signal": 0.137}
{"sequence": "AGTGTGTC", "binding signal": -0.118}
{"sequence": "GAGTGTCA", "binding signal": -0.0802}
{"sequence": "ACGGCCCT", "binding signal": -0.204}
{"sequence": "CCAGCTCA", "binding signal": 0.0137}
{"sequence": "AACACGCG", "binding signal": -0.134}
{"sequence": "CTTTCCAA", "binding signal": -0.223}
{"sequence": "AGACAACT", "binding signal": -0.0783}
{"sequence": "GAGGTCAC", "binding signal": -0.279}
{"sequence": "GTGGAACA", "binding signal": -0.175}
{"sequence": "ACACAGGA", "binding signal": -0.181}
{"sequence": "TGGTGCAA", "binding signal": -0.0495}
{"sequence": "GGTGAACA", "binding signal": 0.0462}
{"sequence": "ACAGCGAC", "binding signal": -0.042}
{"sequence": "AGCGGGTG", "binding signal": -0.207}
{"sequence": "CCCATCTA", "binding signal": 0.145}
{"sequence": "AATAAAAA", "binding signal": 0.295}
{"sequence": "ATTGATTG", "binding signal": -0.0735}
{"sequence": "CTGTAAAG", "binding signal": 0.00839}
{"sequence": "ACTCGACT", "binding signal": -0.0495}
{"sequence": "GTTATCAA", "binding signal": 0.268}
{"sequence": "CATGGAAG", "binding signal": -0.104}
{"sequence": "CAGCGATA", "binding signal": 0.135}
{"sequence": "ACGGTAAC", "binding signal": 0.0765}
{"sequence": "CATGAGGA", "binding signal": -0.112}
{"sequence": "CACAGTGG", "binding signal": -0.147}
{"sequence": "AGTTGATA", "binding signal": 0.161}
{"sequence": "AATCCGTA", "binding signal": 0.14}
{"sequence": "AAGTCATA", "binding signal": -0.0251}
{"sequence": "CATCCATA", "binding signal": 0.0697}
{"sequence": "CAATGTAC", "binding signal": 0.204}
{"sequence": "GAATAAAC", "binding signal": 0.0598}
{"sequence": "GTCTAGAA", "binding signal": -0.0641}
{"sequence": "ACAGGCGC", "binding signal": -0.0721}
{"sequence": "TAGGACGA", "binding signal": -0.213}
{"sequence": "CGGTCGCA", "binding signal": -0.0742}
{"sequence": "AGGCCGCA", "binding signal": -0.381}
{"sequence": "TCACAGCA", "binding signal": -0.0793}
{"sequence": "CTTAGATA", "binding signal": 0.244}
{"sequence": "CGATGTCC", "binding signal": -0.128}
{"sequence": "CGAGTCGC", "binding signal": -0.117}
{"sequence": "CCCGCGAC", "binding signal": -0.282}
{"sequence": "CGCCTACC", "binding signal": -0.059}
{"sequence": "CTAACGAG", "binding signal": 0.12}
{"sequence": "ATTACAGA", "binding signal": 0.216}
{"sequence": "CCCTCGCA", "binding signal": -0.231}
{"sequence": "AAGTCGCC", "binding signal": -0.103}
{"sequence": "AAGTTGTG", "binding signal": 0.0629}
{"sequence": "ACATCGGG", "binding signal": -0.168}
{"sequence": "AACAATTC", "binding signal": 0.118}
{"sequence": "ATACGTCC", "binding signal": 0.049}
{"sequence": "CATGGGAC", "binding signal": -0.0494}
{"sequence": "ATGCAGTC", "binding signal": -0.0482}
{"sequence": "GGGGTCTA", "binding signal": -0.3}
{"sequence": "CATGTAAA", "binding signal": 0.25}
{"sequence": "ACTAGCCT", "binding signal": 0.0922}
{"sequence": "ATCAGTAA", "binding signal": 0.225}
{"sequence": "AAGCTCGA", "binding signal": -0.164}
{"sequence": "CCTATATA", "binding signal": 0.283}
{"sequence": "TCTAAGCA", "binding signal": 0.125}
{"sequence": "GCCGCCGA", "binding signal": -0.238}
{"sequence": "TGGTCAAA", "binding signal": -0.0326}
{"sequence": "GGTCGCGA", "binding signal": -0.119}
{"sequence": "GGGTCGCA", "binding signal": -0.0169}
{"sequence": "ACTCATCA", "binding signal": 0.184}
{"sequence": "ATGGAAAA", "binding signal": 0.0655}
{"sequence": "CGCTTCCA", "binding signal": -0.00772}
{"sequence": "AGGCCGCG", "binding signal": -0.24}
{"sequence": "AAACGTCA", "binding signal": -0.105}
{"sequence": "AGATCACC", "binding signal": 0.0774}
{"sequence": "AGGGGTCC", "binding signal": -0.292}
{"sequence": "CATGAACA", "binding signal": -0.12}
{"sequence": "GAAACCAA", "binding signal": 0.0196}
{"sequence": "GAAGGGCC", "binding signal": -0.263}
{"sequence": "TACGGATA", "binding signal": 0.0656}
{"sequence": "ACCAGTCA", "binding signal": -0.113}
{"sequence": "CTTACCAC", "binding signal": 0.0604}
{"sequence": "AATGTTGT", "binding signal": -0.0213}
{"sequence": "AACTAGTG", "binding signal": 0.376}
{"sequence": "GCCCGAGA", "binding signal": -0.0951}
{"sequence": "AAGCCCAT", "binding signal": -0.0839}
{"sequence": "CGCGACAA", "binding signal": -0.0184}
{"sequence": "TCCAGGCA", "binding signal": -0.138}
{"sequence": "GTCGATGA", "binding signal": -0.0895}
{"sequence": "CACACACA", "binding signal": -0.00487}
{"sequence": "ATAGAAGG", "binding signal": -0.044}
{"sequence": "CCTCATCG", "binding signal": -0.0544}
{"sequence": "AGCATAAC", "binding signal": -0.0105}
{"sequence": "AAGCTAAC", "binding signal": -0.0805}
{"sequence": "CTTTCTCC", "binding signal": -0.098}
